The supplement of paper PMC6531468
The list shows a part of the results. Values come from read counts of a selection and are noisy. Each score is taken over the longer molecules that contain the sequence shown.

test system: IMP3 KH3-4; experiment: 6-mer SELEX enrichment z-score vs GST control; IMP3 is the RNA-binding protein IGF2BP3; higher = more enriched by binding; conditions: construct: KH3-4 (377-579); SELEX round: R4
Protocol: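 SELEX-seq with GST-tagged IMP3 KH3-4 (Pro377-Lys579) and an N40 RNA pool, round 4. 6-mer z-score of sequence-tag enrichment normalised to the corresponding GST SELEX round; RNA k-mers written as DNA (T for U).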

IMP3 KH3-4, sequence (chain, as listed by the source): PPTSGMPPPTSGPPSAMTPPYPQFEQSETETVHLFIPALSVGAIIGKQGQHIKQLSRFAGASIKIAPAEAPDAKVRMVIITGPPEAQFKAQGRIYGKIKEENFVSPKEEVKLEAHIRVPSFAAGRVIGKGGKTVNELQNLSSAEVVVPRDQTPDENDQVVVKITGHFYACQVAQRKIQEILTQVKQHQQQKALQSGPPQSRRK

Sequence | 6-mer SELEX enrichment z-score
TACCGT | -0.35
GAGTAC | -0.556
GTTAGT | 0.231
AATACC | -1.25
ATGGGA | 0.958
TATGCA | 0.983
ATTGAC | 0.238
ATAAGG | 1.51
ATAAGA | 2.4
TTGTAA | 0.666
TCCGCG | -0.926
ACTAAG | 0.326
CCCACT | -1.38
ATGCAC | 0.845
CATTCC | 0.138
GGTGCT | -0.007
TCTACC | -0.843
GACGCA | -0.427
CACCTT | -0.412
ATAGGC | 1.11

Sequence | 6-mer SELEX enrichment z-score
TTGTTT | 0.554
GATCCC | -1.14
TAATCC | -0.099
GGAGAA | 1.15
CACGGT | -0.203
GGCTTC | 0.086
ATCAGG | 0.538
CGAACA | -1.06
AGCTCC | -0.318
ATGTGA | 1.17
CTCCGT | -0.35
ACCATC | -0.529
CCACGG | -0.81
CAATCA | 0.473
AAACGT | -1.53
AAGCCA | -0.815
AAATCG | -0.918
ATAACG | 1.27
AACGAT | 0.379
